Source: PubChem BioAssay AID463173 (ICCB-Longwood Screening Facility, Harvard Medical School, 2010)
Among all 52,000 compounds or so, about 4,300 (8.3%) were called active. Rule as the data show it: active = survival mostly below about 52% (no sharp cut-off); inactive = mostly above about 56%. The list shows a part of the results.

System: DeltatarO mutant
Experiment: S. aureus survival, RN4220 and DeltatarO strains – OD600, teichoic acid synthesis inhibitors, primary screen (AID 463173)
Conditions: S. aureus RN4220 wild type/DeltatarO growth, OD600, 18 h, stronger effect = lower value, screened at 18.75 µg/mL (by protocol)

SMILES	survival
CN(C(=O)CSc1nc2ccc(NC(=O)c3ccco3)cc2s1)c1ccccc1	inactive: 59%
COc1cccc(OC(=O)N2CCOCC2)c1	inactive: 103%
CC1CCC2C(C1)Nc1c(C(=O)O)cccc1C2(C)C (stereo unspecified)	active: 40%
O=C(CSC1=NCCS1)OCN1C(=O)c2ccccc2C1=O	inactive: 103%
CCOC(=O)c1cc(S(=O)(=O)N2CCN(c3cccc(C)c3)C(C)C2)[nH]n1 (stereo unspecified)	inactive: 92%
Cc1ccc2nc3sc(C(=O)Nc4ccc(F)cc4)cc3cc2c1	active: 37%
COC(=O)c1ccc(NC(=O)C(C)N2Cc3ccccc3C2=O)cc1 (stereo unspecified)	inactive: 66%
COc1ccc(N2CCN(C(=O)c3c(C)oc4ncn(CC(C)C)c(=O)c34)CC2)cc1	inactive: 84%
COc1cc(CNCCSc2nnnn2C)ccc1OCc1ccccc1	inactive: 73%
N=c1n(CCN2CCCCC2)c2ccccc2n1CC(O)c1ccc2c(c1)OCO2 (stereo unspecified)	inactive: 83%
CCCC(=O)Nc1ccc2nc(SCCOc3ccccc3)sc2c1	inactive: 91%
CCCN1Cc2cccc(C(=O)Nc3ccccc3F)c2C1=O	inactive: 94%
Cc1cccc(NC(=O)C(=O)NCC(c2cccnc2)N2CCN(Cc3ccccc3)CC2)c1 (stereo unspecified)	inactive: 81%
CCOc1ccc(NCc2cccn2-c2nnc(N3CCC(C(=O)NCCc4ccc(OCC)c(OCC)c4)CC3)s2)cc1	inactive: 66%
O=C(NC12CC3CC(CC(C3)C1)C2)c1ccco1	inactive: 72%
CCC(NC(=O)c1ccccc1)c1ccccc1 (stereo unspecified)	inactive: 90%
COCCn1c(C)cc(O)c(C(c2ccc(OC)cc2)N2CCCCC2)c1=O (stereo unspecified)	inactive: 83%
CC1CN(C(=O)Nc2ccc(C(=O)NCCc3ccc(Cl)cc3)cc2)c2ccccc2S1 (stereo unspecified)	inactive: 88%
O=C(Cc1ccccc1)NN1C(=O)c2ccccc2C1=O	inactive: 92%
COc1ccc2ncc3c(-c4ccccc4)nn(-c4ccc(C)c(C)c4)c3c2c1	active: 18%
COc1ccccc1NC(=O)CSc1ncc(CO)n1Cc1ccc(F)cc1	inactive: 128%
CC(C)c1cnc2c(c1SCC(=O)c1ccc(Cl)cc1)c(=O)n(C)c(=O)n2C	inactive: 90%
Cc1ccccc1NC(=O)Cn1c(=O)n(Cc2ccco2)c(=O)c2ccc(C(=O)NC3CCCC3)cc21	inactive: 77%

SMILES	survival
Cc1cccc(N2CCN(C(=O)C3CCN(S(=O)(=O)Cc4ccccc4)CC3)CC2)c1C	inactive: 71%
CC1CCN(C(=O)CSc2nc3ccccc3c(=O)[nH]2)CC1	inactive: 92%
Cc1cc(-c2ccccc2)nc2cc(C(=O)Nc3ccc(Cl)c(Cl)c3)nn12	inactive: 52%
O=C(NCN1CCCCC1)Nc1cccc(Cl)c1	inactive: 89%
COc1ccc(CN(Cc2cc3cccc(C)c3n3nnnc23)C(=O)N2CCOCC2)cc1	inactive: 96%
COc1ccc(Cl)cc1NC(=O)c1c(NCc2cccnc2)sc2c1CCCC2	inactive: 79%
CC(C)(C)OC(=O)N1CCC(c2c(C(=O)NCCc3ccsc3)cnn2-c2ccc(F)cc2F)CC1	inactive: 81%
CCOC(=O)c1c(Nc2ccc(OCC)cc2)nnc(-c2ccccc2)c1-c1ccccc1	active: -2%
COc1ccc(Cn2nc3n(c2=O)-c2ccccc2OC3)cc1	inactive: 67%
C=CCn1c(COc2ccc(OC)cc2)n[nH]c1=S	inactive: 95%
O=C(Nc1ccccc1)c1cc2c(-c3ccccc3)nn(-c3ccccc3)c2s1	active: 44%
CCCCNC(=O)C1(NC(=O)Nc2ccccc2)CCCCC1	inactive: 74%
CCOc1ccc(OC(=O)c2sc3ncn(Cc4cccc(F)c4)c(=O)c3c2C)cc1	inactive: 79%
O=C(CSc1c2c(nc3ccc(Cl)cc13)CCCC2)N1CCN(c2ccc(Cl)cc2)CC1	active: 31%
CSc1ccc(CCNS(=O)(=O)c2cc(-c3cc(C)no3)ccc2C)cc1	inactive: 88%
CCOC(=O)c1cnc2cc(Cl)c(OC)cc2c1Nc1ccc(Br)cc1C	inactive: 102%
COc1ccccc1C(=O)NC1(C(F)(F)F)C(=O)NC(C)=C1C#N (stereo unspecified)	inactive: 69%
COc1ccccc1N1CCN(C(=O)C2CCN(S(=O)(=O)c3cccs3)CC2)CC1	inactive: 64%
Cc1ccccc1NC(=O)Cn1nnc(C(=O)NCc2ccco2)c1N	inactive: 96%
COc1cc(OC)c(NC(=O)c2nn(C)c3c2COc2ccccc2-3)cc1Cl	inactive: 104%
CCN(CC)S(=O)(=O)c1ccc2c(c1)N(CC(=O)Nc1cccc(C(C)=O)c1)C(=O)CO2	inactive: 84%
O=C(Nc1ccc2nc[nH]c2c1)C1CCCCC1	inactive: 102%
O=C(COCc1cc(-c2ccc3c(c2)OCO3)on1)Nc1cccc(O)c1	inactive: 99%

SMILES	survival
CCC(=O)N1c2ccccc2CC1C(=O)NCCCN1CCN(c2ccc(F)cc2)CC1 (stereo unspecified)	inactive: 124%
COc1ccc(Cl)cc1S(=O)(=O)Nc1ccc2c(c1)n(C)c(=O)n2C	inactive: 67%
Cc1cccc(C(=O)n2nc(-c3ccco3)nc2NCc2ccccc2)c1	inactive: 63%
COc1ccc(OC)c(NC(=O)C(Cc2ccccc2)NS(=O)(=O)c2ccc3c(c2)CCC(=O)N3)c1 (stereo unspecified)	inactive: 85%
CCn1cc2nc(SCc3c(F)cccc3Cl)n(CCc3ccccc3)c(=O)c2n1	active: 52%
CNC(=O)C1CCC(Cn2c(=O)c3sccc3n(CC(=O)Nc3ccc(C)cc3C)c2=O)CC1 (stereo unspecified)	inactive: 87%
Cc1cccc(NC(=O)CSc2nc(=O)n(CCN3CCOCC3)c3c2CCC3)c1	inactive: 86%
Cc1ccc(-n2ncc(C(=O)NCCN3CCc4ccccc4C3)c2C2CCN(C(=O)OC(C)(C)C)CC2)c(C)c1	inactive: 64%
O=C(CN1C(=O)COc2ccc(S(=O)(=O)NC3CCCC3)cc21)Nc1ccc(F)c(Cl)c1	inactive: 124%
Cc1ccc2nc(-c3ccc(N4CCOCC4)cc3)c(Nc3ccccc3C)n2c1	inactive: 71%
O=C(NCCn1cc(SCc2ccc(C(F)(F)F)cc2)c2ccccc21)c1cccs1	inactive: 95%
COc1ccc(-n2nc3c(N4CCCC(C(=O)NCc5ccccc5C)C4)nnc(C)c3c2C)cc1 (stereo unspecified)	inactive: 90%
Cc1nnc(SCC(=O)NCc2cccc(F)c2)c2nn(-c3ccccc3)c(C)c12	inactive: 67%
N#CCOc1nc(OCC#N)nc(OCC#N)n1	active: 1%
CCCS(=O)(=O)NCCc1sc2nc(-c3ccc(Cl)cc3)nn2c1C	inactive: 70%
NC(=O)C1CCN(C(=O)c2ccccc2NC(=O)c2nsc3ccccc23)CC1	inactive: 126%
CCOC(=O)c1c(NC(=O)c2cc(=O)c3c(C)cc(C)cc3o2)sc(C)c1C	inactive: 61%
COc1cccc(NC(=O)CN2C(=O)COc3ccc(S(=O)(=O)N4CCOCC4)cc32)c1	inactive: 81%
CN(c1nnc(NC(=O)Nc2ccc(Br)cc2)s1)C1CCCCC1	inactive: 62%
COc1ccccc1CNc1ncnc2onc(-c3ccc(Cl)cc3)c12	inactive: 88%
Cc1[nH]c2ccccc2c1C1(O)C(=O)N(Cc2ccccc2)c2ccc(Br)cc21 (stereo unspecified)	active: 3%
Cc1ccc(NC(=O)Nc2csc3c2CCCC3)c(C)c1	inactive: 63%
COC(=O)COc1ccc(S(=O)(=O)N2CCN(c3ccccc3F)CC2)cc1Cl	inactive: 89%

SMILES	survival
CCc1ccc(NC(=O)c2sc3nc(-c4ccccc4)cn3c2C)cc1	inactive: 107%
CCN1CCN(C(c2cccc(OC)c2)c2c(O)cc(C)n(Cc3ccco3)c2=O)CC1 (stereo unspecified)	inactive: 120%
O=C(Oc1ccccc1OC(=O)N1CCCCC1)N1CCCCC1	inactive: 79%
CCN(CC)CCNC(=O)Cn1cnc2sc(C)c(S(=O)(=O)N3CCN(c4ccccc4OC)CC3)c2c1=O	inactive: 83%
CCOc1ccc(NC(=O)CSc2oc(-c3ccco3)nc2S(=O)(=O)c2ccc(Cl)cc2)cc1	inactive: 119%
COc1cccc(C2C=C(c3ccc(C)cc3)Nc3c(C(=O)Nc4ccc(F)cc4)cnn32)c1OC (stereo unspecified)	active: 0%
O=C(Nc1ccccc1C(F)(F)F)N1Cc2ccccc2Oc2ncccc21	inactive: 73%
CC(NC(=O)c1ccc(Cn2c(SCc3ccccc3)nc3cccnc32)cc1)c1ccccc1 (stereo unspecified)	inactive: 75%
COc1ccc(CN(C(=O)c2ccc(OCC(C)C)cc2)C2CCS(=O)(=O)C2)cc1 (stereo unspecified)	inactive: 93%
COc1ccccc1Nc1nn2c(=O)c3ccc(C(=O)NC4CCCCC4)cc3nc2s1	inactive: 74%
CCOc1ccc(N(CC(=O)NCc2ccc(C)cc2)S(=O)(=O)c2c(C)[nH]c(=O)[nH]c2=O)cc1	inactive: 84%
Brc1ccc(-c2csc(-c3nc(-c4ccc(Br)s4)cs3)n2)cc1	inactive: 81%
CCOC(=O)N1CCc2c(sc(NCc3ccc(N(C)C)cc3)c2C(=O)Nc2ccccc2OCC)C1	inactive: 101%
CCN(CC)C(=O)c1ccc2nc(N)sc2c1	inactive: 101%
CC(=O)N1c2ccc(S(=O)(=O)NCC3CCC(C(=O)Nc4cccc(F)c4)CC3)cc2CC1C (stereo unspecified)	inactive: 93%
CCN(CC)c1nc(Nc2ccc(OC)cc2)nc(Nc2ccc(OC)cc2)n1	inactive: 74%
CCc1cccc(-n2nnc(-c3nc(-c4ccc5c(c4)OCO5)no3)c2C)c1	inactive: 87%
Cc1cccc(C(=O)NCc2nnc(SCC(=O)Nc3ccccc3F)n2-c2ccccc2)c1	inactive: 72%
CC(C)C(c1nnnn1Cc1ccccc1)N1CCCc2ccccc21 (stereo unspecified)	inactive: 101%
COc1ccc(NC(=O)CSc2nc(-c3ccccc3)c3ccccc3n2)cc1	inactive: 78%
CCOc1ccc(-c2n[nH]c3c2C(c2cccs2)N(c2ccc(Br)cc2)C3=O)cc1 (stereo unspecified)	inactive: 79%
CCOC(=O)c1cc(-c2ccc(OC)cc2)n(CCC(=O)NC2CCC(C)CC2)c1C (stereo unspecified)	inactive: 98%
